# From PubChem BioAssay AID504832 (National Center for Advancing Translational Sciences (NCATS), 2011)
# Screen size: about 310,000 compounds; about 18,000 (5.8%) were called active. This list was built around the results that the source calls inconclusive (neither active nor inactive); the mix of calls is not that of the screen. The call rests on the fitted dose curve; in most records, active means well fitted inhibition curve with a large enough effect; inconclusive means small, poorly fitted or top-dose-only effect, or another doubt; inactive means no such curve, though single readings can be large or run the other way. Potencies of inconclusive entries are left out as doubtful fits. Some compounds were tested as several samples or in several runs, with calls that do not always agree.
# Test: Primary qHTS for delayed death inhibitors of the malarial parasite plastid, 48 hour incubation
# Details: P. falciparum luciferase growth in erythrocytes; series mostly up to 28.7 µM; activity change, negative = inhibition: at the top concentration
# In short: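 Firefly luciferase activity from engineered P. falciparum reports growth; inhibitors lower the luminescent signal. Cultures contained 2% hematocrit erythrocytes at 0.1% final parasitemia.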
# On the % scale 0 is the no-effect control and ±100 the full control effect; potency means the concentration at half of the fitted maximal effect; tags describe the fitted curve by direction and shape.
SMILES,"activity change, negative = inhibition",Potency
COc1ccc(OCC(=O)N2CCN(C(=O)c3ccc([N+](=O)[O-])cc3)CC2)cc1,inactive: 14.7%,–
CCOC(=O)N1CCN(C(=O)CSc2nc3c(cnn3-c3ccc(Cl)cc3)c(=O)[nH]2)CC1,inactive: 11.3%,–
CCCn1c(C)cc(C(=O)COc2ccc(-c3nnco3)cc2)c1C,–,"inconclusive [inhibitor, single point]"
O=C(/C=C/c1ccc(Cl)cc1Cl)NCc1ccco1,–,active: 11.7 µM
COc1cc(C(=O)N/N=C/c2ccccn2)cc(OC)c1OC,–,"inconclusive [inhibitor, single point]"
O=C1CCC(C(=O)N(c2ccccc2)C2(C(=O)NC3CCCCC3)CCCCC2)N1 (stereo not drawn),–,"inconclusive [inhibitor, single point]"
Cc1ccc(-n2ncc3c(NCc4ccco4)ncnc32)cc1C,inactive: 71.3%,–
CN(Cc1cccs1)C(=O)C1CCN(S(=O)(=O)c2ccccc2)CC1,–,"inconclusive [inhibitor, single point]"
COc1ccc2c(c1)c(=O)c(C(=O)O)c(-c1ccc3c(c1)OCO3)n2C,inactive: 6.46%,–
Cc1ccc(CSC2=Nc3sccc3C3=NC(=O)CN23)cc1,–,active: 11.7 µM
COc1ccc(C)cc1NC(=O)CN1C(=O)COc2ccc(S(=O)(=O)N3CCCCC3)cc21,inactive: -17.8%,–
Cc1nc(NS(=O)(=O)c2ccc(N)cc2)nc(C)c1Br,inactive: 3.99%,–
NC(=O)Nc1ccc(C(=O)OCC(=O)Nc2sccc2C(N)=O)cc1,inactive: 49.9%,–
O=C(NCCN1CCN(c2ccccc2)CC1)Nc1cccc(Br)c1,–,"inconclusive [inhibitor, single point]"
CCCCCC(=O)N1CCN(S(=O)(=O)c2ccc3c(c2)OCCCO3)CC1,–,"inconclusive [inhibitor, full curve, poor fit]"
O=C(c1cc(Cl)cc(Cl)c1)N1CCN(c2cc(C(F)(F)F)nc3ccccc23)CC1,–,active: 3.7 µM
CC1CCN(CC(=O)Nc2ccc(S(=O)(=O)N3CCCC(C)C3)cc2)CC1 (stereo not drawn),–,"inconclusive [inhibitor, single point]"
COC(=O)c1sc(C(F)(F)F)c(-c2ccccc2)c1S(=O)(=O)N1CCCC1,–,"inconclusive [inhibitor, partial curve, poor fit]"
Cc1ccc(CSc2nc3ccccc3c(=O)n2CCCC(=O)NCc2ccco2)cc1,–,"inconclusive [inhibitor, single point]"
CC(Oc1ccc2c(-c3ccccc3)cc(=O)oc2c1)C(=O)NCC1CCC(C(=O)O)CC1 (stereo not drawn),–,active: 5.22 µM
Cc1ccc(-n2ncc3c(SCc4ccccn4)ncnc32)c(C)c1,–,"inconclusive [inhibitor, single point]"
Cc1cc2c(s1)c1cnn(-c3ccccc3)c(=O)c1n2C,–,"inconclusive [activator, partial curve]"
Fc1ccc(-c2cn(-c3ccccc3)c3[n+]2CCS3)cc1,–,active: 0.928 µM

SMILES,"activity change, negative = inhibition",Potency
O=C1CCCN1c1ccc(CNS(=O)(=O)c2ccc(F)cc2)cc1,inactive: 24%,–
CCC(CC)COC(=O)C1=C(C)NC(=O)NC1c1cccc([N+](=O)[O-])c1 (stereo not drawn),–,"inconclusive [inhibitor, full curve, poor fit]"
COc1ccc(CCN2CC(C(=O)NC3CCCCC3)CC2=O)cc1OC (stereo not drawn),inactive: 14.6%,–
c1cncc(-c2ccc3ncnc(NCc4ccc5c(c4)OCO5)c3c2)c1,–,"inconclusive [inhibitor, single point]"
Cc1cc(C)nc(NS(=O)(=O)c2ccc(NC(=O)c3ccccc3C)cc2)n1,–,"inconclusive [inhibitor, single point]"
O=C(CSc1nnc(Nc2ccccc2)s1)Nc1cccc(S(=O)(=O)N2CCCCC2)c1,–,"inconclusive [inhibitor, single point]"
C=C(C)COc1ccc(-c2ncncc2-c2ccc(OC)cc2)c(O)c1,–,"inconclusive [inhibitor, partial curve, poor fit]"
CC(NC(=S)Nc1ccc(S(=O)(=O)N2CCOCC2)cc1)C1CC2CCC1C2 (stereo not drawn),–,"inconclusive [inhibitor, single point]"
O=C(Nc1ccccc1)N1CCC(c2nc(-c3ccc(S(=O)(=O)N4CCOCC4)cc3)no2)CC1,–,"inconclusive [inhibitor, partial curve]"
CCOC(=O)N1CCN(S(=O)(=O)c2ccc(OCC(=O)OC)cc2)CC1,inactive: -13.8%,–
CNS(=O)(=O)c1cccc(C(=O)OCc2cc(=O)oc3c(C)c(O)ccc23)c1,–,"inconclusive [inhibitor, single point]"
Brc1ccc(Cn2c(-c3cncs3)nc3ccccc32)cc1,–,"inconclusive [inhibitor, single point]"
OC(C#CCN1CCCC1)(c1ccccc1)c1cccnc1 (stereo not drawn),–,"inconclusive [inhibitor, single point]"
CC(=O)N1c2c(cc(Br)cc2S(=O)(=O)N2CCCCC2)CC1C (stereo not drawn),–,"inconclusive [inhibitor, partial curve]"
CC(C)[C@@H](C(=O)N1CCN(Cc2ccc3c(c2)OCO3)CC1)n1nnc2ccccc2c1=O,–,"inconclusive [inhibitor, partial curve]"
O=C(N/N=C/c1ccc(N2CCOCC2)cc1)c1ccccc1OCCOc1ccccc1,–,"inconclusive [inhibitor, partial curve]"
COc1ccccc1NC(=O)CSc1nccc(-c2ccco2)n1,–,"inconclusive [inhibitor, single point]"
O=C1CC(Cc2ccccc2)C(=O)N1Cc1ccco1 (stereo not drawn),–,"inconclusive [inhibitor, full curve, poor fit]"
CC(C)OC(=O)/C(=C\C=C\c1ccccc1)NC(=O)c1ccccc1,–,active: 11.7 µM
O=S(=O)(N/N=C\c1ccc2c(c1)OCO2)c1ccc(F)cc1,inactive: 32.1%,–
COc1ccc2[nH]c(=S)[nH]c2c1,inactive: 20.3%,–
CNC[C@H](CC1CCCCC1)NC[C@H](Cc1ccccc1)NCCC12CC3CC(CC(C3)C1)C2,–,"inconclusive [inhibitor, full curve]"
COc1ccc(NC(=O)C2CCN(C(=O)[C@@H]3Cc4ccccc4CN3C(=O)OC(C)(C)C)CC2)cc1,–,"inconclusive [inhibitor, single point]"

SMILES,"activity change, negative = inhibition",Potency
COc1cc(NC(=O)CCc2c(C)nn(-c3ccc(N4CCOCC4)nn3)c2C)cc(OC)c1OC,–,"inconclusive [inhibitor, single point]"
O=C(Nc1ccc(CSc2ccccc2)cc1)c1ccco1,inactive: 15.6%,–
CC(=O)N(CC(C)C(=O)O)c1c(I)cc(I)c(N)c1I (stereo not drawn),–,"inconclusive [inhibitor, partial curve, poor fit]"
CSc1nsc(SCC(=O)N2CCc3ccccc32)n1,–,"inconclusive [inhibitor, partial curve, poor fit]"
COc1ccccc1CNS(=O)(=O)c1c(C(=O)N2CCCCC2)c(C)n(C)c1C,–,"inconclusive [inhibitor, partial curve, poor fit]"
O=C(CSc1nncs1)Nc1ccc(S(=O)(=O)N2CCCC2)cc1,inactive: -0.446%,–
CCCCC1CCC(C(=O)OCC(=O)N(CCOC)c2c(N)n(Cc3ccccc3)c(=O)[nH]c2=O)CC1 (stereo not drawn),–,"inconclusive [inhibitor, partial curve, poor fit]"
CCOC(=O)c1oc2nc(C(C)C)c3c(c2c1N)CC(C)(C)OC3,–,"inconclusive [inhibitor, single point]"
C=CCSc1nc2c(C(=O)OCC)nnn2c2ccccc12,inactive: 9.36%,–
CC(=O)OCC1=C(C(=O)O)N2C(=O)[C@@H](NC(=O)CSc3ccncc3)[C@H]2SC1,–,"inconclusive [inhibitor, full curve, poor fit]"
CCOC(=O)NNC1CC(=O)N(c2ccc(OC)cc2)C1=O (stereo not drawn),inactive: 1.91%,–
Cc1oc2c(C)c3oc(=O)c(CCC(=O)NCCCN4CCCC4=O)c(C)c3cc2c1C,inactive: 2.01%,–
COc1ccc(/C=C/C(=O)N(Cc2cccs2)C2CCS(=O)(=O)C2)cc1 (stereo not drawn),inactive: -19.7%,–
Cc1ccccc1Nc1nc2ccccc2n1C(C)C,–,"inconclusive [inhibitor, single point]"
O=C(CSc1ccccc1)Nc1cc(S(=O)(=O)N2CCOCC2)ccc1N1CCOCC1,–,"inconclusive [inhibitor, partial curve, poor fit]"
CC(=O)N1c2ccc(S(=O)(=O)N3CCC(C(=O)Nc4cc(C)cc(C)c4)CC3)cc2CC1C (stereo not drawn),–,"inconclusive [inhibitor, partial curve]"
Cc1ccccc1CN(CC(=O)Nc1cccc([N+](=O)[O-])c1)S(=O)(=O)c1ccc(Cl)cc1,–,"inconclusive [inhibitor, single point]"
CCn1c(C(C)NC(=O)c2cccs2)n[nH]c1=S (stereo not drawn),inactive: -5.32%,–
CCn1cc(C(=O)NCCCN2CCC(C)CC2)c(=O)c2cc(S(=O)(=O)N3CCCC3)ccc21,–,"inconclusive [inhibitor, single point]"
CN(C(=O)c1ccc(F)cc1)c1ccccc1C(=O)NCc1ccccc1,–,"inconclusive [inhibitor, partial curve, poor fit]"
COc1ccc(F)cc1C(=O)C1CCCN(Cc2cccn2-c2cccnc2)C1 (stereo not drawn),–,"inconclusive [inhibitor, partial curve]"
OC(CN1CCc2ccccc2C1)c1ccccc1 (stereo not drawn),–,"inconclusive [inhibitor, single point]"
